Experimental data as given in the RNAGym collection of RNA variant scans (doi:10.7554/elife.90254).
Read counts are not given, so values of variants with three or more changes are uncertain.

B1: LINE1-mini (parent)
chain: GGCAGAGCUCAACACAGCGUGGCAAAGUGGCUGUGGCUAGACUGCC

Variants of: B1
Assay: self-cleavage, relative activity (ratio to wild type); higher = more cleavage; in vitro, sequencing; the parent is a self-cleaving ribozyme

| Variant | self-cleavage |
| --- | --- |
| GGCAGAUCUCUACACAGUGUGGCAAGGUGGCUGUGGCUAGACUGCC | 0 |
| GGCAGACCUCAACACAGGGUAGCAAAGUGUGUGAGGCUAUACUGCC | 0.01 |
| GGCAGACCUUAACACAGCGUGGCAAAGUGGCUGUGGCUGGAGUGCC | 0.1 |
| GGCAGACCUCAAUACAGCGUGCCAAAGUGGCUGUGGCUAGCCUGCC | 0.04 |
| GGCAGACCGCAACACAGCGUAGAAAAGUGGCUGUGGCGAGGCUGCC | 0.01 |
| GGCAGACCUAAACACAGCGUGGCAAAGUGGCUGUGGCUAGCCUGCA | 0.02 |
| GGCAGACCUCAACACAGCGCGGCAAUGUGGCUGUGGCUAGACUACC | 0.02 |
| GGCAGACCGCAACGCAGCGUGGCAAAGUGGCUGUGGCUAGACCGCC | 0.88 |
| GGCAGACCUCAACACAGCGUGGCAAAGUGGCGUUGGCUAGACUGCC | 0.16 |
| GGCAGACCUCAAAACAGCGAGGCAAAGUGGCUGUUGCUCGACUGCC | 0.23 |
| GGCAGACAUCAAGCCAGCGUGGCAAAGUGGCUGUGGCUAGACUGCC | 0.15 |
| GGCAGACCUCAACACAGCGUGACACAGUGGCCGUGGGUAGACUGCC | 0.04 |
| GGCAGACCUUAAAACAGUGUGGCAAAGUGGCCGUGGCUAGACUGCG | 0.02 |
| GGCAGACCUCAACACAGCCUGGCAAAGUGGCUGUAGCUUGACUGCC | 0.01 |
| GGCAGACCUAAACACAGCGUGGCAAACUGGCUGUGGCUAGACUGCC | 0.07 |
| GGCAGACCUCAACACAGGGUGGGAAAGUGGCAGUGGCUAGACUGCC | 0.03 |
| GGCAGACCGCAACAGAGCGUGGCAAAGUGGCUGUGGCUAGACUGCC | 0.1 |
| GGCAGACCUCAACACAGCGUGUCAAAGUGGAUGUGGCUAGACUGCU | 0.08 |
| GGCAGACCACAACAAAGCGUGGCAAAGUGGCUGUGACUAGACUGCC | 0.01 |

| Variant | self-cleavage |
| --- | --- |
| GGCAGACGUCAACACAGGGUGGCAAAGUGGCUGUGGCUAGACUGCC | 0.1 |
| GGCAGACCUCAACACAGCGUGGCAAAGUUGCUGUGGCGAGACUGCC | 0.03 |
| GGCAGACCUCAACACAGCGUGGCAAAGUGGCUUUGCCUAGACUGCC | 0.03 |
| GGCAGAUCUCACCCUAGCGUGGCAACGUGGCUGUGGCUAUACUGCC | 0.02 |
| GGCAGACCUCAAAACAGCGUGGGAAAGUGGCUGUGGCUAGAAUGCC | 0.19 |
| GGCAGACCUCAACACAGCGUGGCAAACUGGCAGUGGCUAGACUGCC | 0.2 |
| GGCAGACCUCAACACAGCGUGGCAAAGUGGCUCUGGCUAGACUGCG | 0 |
| GGCAGACCUCAACACAGCGUUGCAGAGUGGCUGUGACUAGAAUGCC | 0.53 |
| GGCAGACCUCAAUACAGCGUGGAAAAGUGGCUGUGGCUAGACUGCC | 0.69 |
| GGCAGACCUCAAUACAGCGUGGCAAAGUGGCUGUAGCUAGACUGCC | 0.22 |
| GGCAGAUCUCACAUCAGCGUGGCAAAGUGGCUGUGGCUAGACUGCC | 0.08 |
| GGCAGACCUCAACAUAGCGUGGCAAAGUUGCUGUGGCUAGACUGCC | 0.08 |
| GGCAGACCUCAACACAGCGUGGCAAAGUGGCGGUGCCUAGACUGCC | 0.05 |
| GGCAGACCUGAACACAGCGUGGCAAAGUGGCUGUGGCCAGACGGCC | 0.02 |
| GGCAGACCUCAACACAGCGUGGCAAAGUGGCUGUCGCUAGACUCCC | 0.05 |
| GGCAGACCUCAACACAGCAUGGCAAAGUGGCUGUCGCUCGACUGCA | 0.01 |
| GGCAGAUCUCCACACAGCGUGGCAAAGUGGCUGUGGCUGGACUGCC | 0.03 |
| GGCAGACCUCAACACAGCGUGGCAAAGUGGCUAUGGCUAGGGUGCC | 0.13 |
| GGCAGAUCUCCAGACAGCGUGGGAAAGUGGCGGUGGCUAGACUGCC | 0 |

| Variant | self-cleavage |
| --- | --- |
| GGCAGAUCUCUACACAUAGUGGCAAAGUGGCUGUGGCUAGACUGCC | 0.03 |
| GGCAGACCGCAACACAGCGUGGCAAAGUGGCUGUGCCUAGACUGCC | 0.06 |
| GGCAGACCUCAACACAGCGUUGCUAAGUGGCUGUGGCUAGACUACC | 0.19 |
| GGCAGACCUCAAAACAGCGUGUCAAAGUGGCUGCGGCUAGACUGCC | 0.07 |
| GGCAGACCUCAACACACCGUGGCAAAGUGGCUGUGGCAAGACUGCC | 0.06 |
| GGCAGACCUCAACACAGCUUGGCAAAGUCGCUGUGGCUAACCUGCC | 0.02 |
| GGCAGACCUGAACACAGCGUGGCGAAGUGGCUGUGACUAGACUGCC | 0.03 |
| GGCAGACAUCAAGACAGCGUGGCAAAGUGGCUGUCGCUAGACUGGG | 0.13 |
| GGCAGACCUCAAAACAGCGUGGUAAAGUGGCUGUGGCUAGACUGCC | 0.09 |
| GGCAGACCUCAACACAGCGAGGCAAAGUGGCUGUUCCUAGACUGCC | 0.03 |
| GGCAGACCUCAACACAGCGUGGCAAAGUGGCUGUGACUAGCCUGUC | 0.2 |
| GGCAGACCACAACACAGCGUGGCAAAGGGGCUGUGGCUAGCCUGCC | 0.08 |
| GGCAGACCUCAACACAGGGUGGCAAAGUGGCUGUGCCUAGACUGCC | 0.18 |
| GGCAGACAUCAACACAUCGUGGCAUAGUGGCUGUGGUUGGACUGCC | 0.02 |
| GGCAGACCUCAAGACAGUGUGGCAAAGUGGCUGUGUCUAGACUGCG | 0.02 |
| GGCAGACCUCAAUACAGCGUGGCAAAGUGGCUGUGCGUAGACUGCC | 0.05 |
| GGCAGACCUCAACACAGCGUAGCAAAGUGGCUGUGGCUCGACUGCC | 0.2 |
| GGCAGACCUCAACACAGCGUUGCAAAGUGGCUGUGGAUAGACUGCC | 0.02 |
